In paper PMC4336329 (PLoS ONE, 2015):
Screen size: about 310,000 compounds; about 14,000 (4.5%) showed an effect of 50% or more. The effect is printed as a negative number. This is one part of the list.
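Further: peak tail current of the secondary pulse compared with the same well before compound.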

What follows are molecules tested against human ether-à-go-go-related gene (hERG) potassium channel (human, UniProt Q12809) (assay: primary screen, population patch clamp on CHO cells stably expressing hERG).
human ether-à-go-go-related gene (hERG) potassium channel, sequence (Q12809 whole entry, looked up): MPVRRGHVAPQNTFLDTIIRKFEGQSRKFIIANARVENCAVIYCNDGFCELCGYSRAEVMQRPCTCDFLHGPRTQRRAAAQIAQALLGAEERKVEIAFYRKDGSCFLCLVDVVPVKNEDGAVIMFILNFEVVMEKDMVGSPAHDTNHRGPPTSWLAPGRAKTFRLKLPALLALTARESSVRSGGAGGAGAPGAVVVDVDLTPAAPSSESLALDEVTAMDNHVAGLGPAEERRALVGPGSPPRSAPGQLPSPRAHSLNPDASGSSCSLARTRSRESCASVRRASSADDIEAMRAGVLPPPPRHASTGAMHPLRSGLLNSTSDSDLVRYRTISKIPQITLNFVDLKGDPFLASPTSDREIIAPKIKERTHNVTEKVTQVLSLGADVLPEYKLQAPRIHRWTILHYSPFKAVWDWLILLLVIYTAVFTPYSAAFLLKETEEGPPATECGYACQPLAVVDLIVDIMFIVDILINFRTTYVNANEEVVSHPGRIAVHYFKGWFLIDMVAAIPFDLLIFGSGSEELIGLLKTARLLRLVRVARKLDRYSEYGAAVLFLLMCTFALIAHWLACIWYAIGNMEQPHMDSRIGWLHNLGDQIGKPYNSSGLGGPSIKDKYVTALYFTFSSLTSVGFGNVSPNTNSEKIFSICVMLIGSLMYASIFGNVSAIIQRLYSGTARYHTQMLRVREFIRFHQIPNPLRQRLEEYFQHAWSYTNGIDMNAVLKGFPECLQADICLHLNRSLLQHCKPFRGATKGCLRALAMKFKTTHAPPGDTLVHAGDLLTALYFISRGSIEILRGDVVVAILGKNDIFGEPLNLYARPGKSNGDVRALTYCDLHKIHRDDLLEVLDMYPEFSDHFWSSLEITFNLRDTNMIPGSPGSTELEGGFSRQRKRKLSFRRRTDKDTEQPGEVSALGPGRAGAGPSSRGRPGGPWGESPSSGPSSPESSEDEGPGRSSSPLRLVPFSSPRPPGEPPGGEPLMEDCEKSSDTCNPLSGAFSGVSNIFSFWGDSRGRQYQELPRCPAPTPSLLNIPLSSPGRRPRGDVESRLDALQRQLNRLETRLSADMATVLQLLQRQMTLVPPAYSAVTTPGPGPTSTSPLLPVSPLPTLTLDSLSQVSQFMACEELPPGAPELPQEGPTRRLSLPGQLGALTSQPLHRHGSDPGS
In the case of CC1CCc2[nH]c3ccc(C(=O)N(C)CC(=O)Nc4ccccc4C(F)(F)F)cc3c2C1 (centres unmarked), the “hERG current change (%, negative = inhibition) at 10uM” value is reported as 4.13%. In the case of COCCN1C(=O)N(c2cccc(C)c2)C(=O)C1CC(=O)Nc1ccc(OC)cc1 (centres unmarked), the “hERG current change (%, negative = inhibition) at 10uM” value is reported as 11%. CNC(=S)N(Cc1cc2cc(OC)c(OC)cc2[nH]c1=O)C1CCCC1 was tested, and the “hERG current change (%, negative = inhibition) at 10uM” value was 20.7%. For N/C(=N\N=C\c1ccco1)SC1CC(=O)N(c2ccccc2)C1=O (centres unmarked), the “hERG current change (%, negative = inhibition) at 10uM” value was 17.1%. For CC1(C(=O)NCC2CCCO2)Oc2cccnc2NC1=O (centres unmarked), the “hERG current change (%, negative = inhibition) at 10uM” value was 5.86%. For COC(=O)CN(C#N)c1nc(N(C)C)nc(N(C)C)n1, the “hERG current change (%, negative = inhibition) at 10uM” value was -3.32%. With Nc1c(N(Cc2ccccc2)C(=O)COc2cccc(Cl)c2)c(=O)[nH]c(=O)n1Cc1ccccc1 the “hERG current change (%, negative = inhibition) at 10uM” value was -10.4%. With O=C(NCCCN1CCCC1=O)c1ccc(NS(=O)(=O)c2ccc(F)cc2)cc1 the “hERG current change (%, negative = inhibition) at 10uM” value was -13.9%. Cc1csc(NC(=O)CSc2nsc(SCC(=O)Nc3nc(C)cs3)c2C#N)n1 was tested, and the “hERG current change (%, negative = inhibition) at 10uM” value was 7.77%. With CCN(CC)CCNC(=O)c1cc(Nc2ccc(OC)c(OC)c2)nc2ccccc12 the “hERG current change (%, negative = inhibition) at 10uM” value was -23.8%. In the case of O=C(c1cccs1)n1nc(NCc2ccccc2)nc1NCc1ccccc1, the “hERG current change (%, negative = inhibition) at 10uM” value is reported as 10.5%. For CCOC(=O)C1CCN(S(=O)(=O)c2ccc3c(c2)NC(=O)C(C)C(=O)N3)CC1 (centres unmarked), the “hERG current change (%, negative = inhibition) at 10uM” value was 13.4%. For CC(=O)c1c(C(C)=O)c(C)n(Cc2ccc3c(c2)OCO3)c1C, the “hERG current change (%, negative = inhibition) at 10uM” value was -9.41%. With CC1(NC(=O)CN2CCN(c3cnn(-c4ccccc4)c(=O)c3Cl)CC2)CCS(=O)(=O)C1 (centres unmarked) the “hERG current change (%, negative = inhibition) at 10uM” value was -39.5%. CC(=O)CCc1oc2ccc(NC(C)=O)cc2c1-c1ccc(C)o1 was tested, and the “hERG current change (%, negative = inhibition) at 10uM” value was -20.9%. For O=C(CCC(=O)OCC(F)(F)C(F)F)Nc1ccccc1F, the “hERG current change (%, negative = inhibition) at 10uM” value was 37.7%. With CCN1C(=O)c2cccc3c(S(=O)(=O)Nc4ccccc4)ccc1c23 the “hERG current change (%, negative = inhibition) at 10uM” value was -2.82%. For CC(C)CN(C(=O)COC(=O)C12CC3CC(CC(C3)C1)C2)c1c(N)n(Cc2ccccc2)c(=O)[nH]c1=O, the “hERG current change (%, negative = inhibition) at 10uM” value was 8.98%. With O=C(Nc1ccccc1)c1ccc(-c2ccccc2C(F)(F)F)o1 the “hERG current change (%, negative = inhibition) at 10uM” value was -11.8%. For O=C(NCCO)c1ccc2c3n(nc2c1)-c1ccc(Cl)cc1CO3, the “hERG current change (%, negative = inhibition) at 10uM” value was -12.7%. CCC(c1nnc(SCC(=O)Nc2ccc(S(N)(=O)=O)cc2)n1Cc1ccccc1)N(C)C (centres unmarked) was tested, and the “hERG current change (%, negative = inhibition) at 10uM” value was 19.9%. In the case of O=[N+]([O-])c1cc(S(=O)(=O)N2CCCC2)ccc1SCCO, the “hERG current change (%, negative = inhibition) at 10uM” value is reported as -23.6%. In the case of Cc1cc(-n2c(C)cc(C(=O)CSc3nnnn3-c3ccc(Cl)cc3)c2C)no1, the “hERG current change (%, negative = inhibition) at 10uM” value is reported as -3.04%.
